The text below walks through data of ChEMBL document CHEMBL1201862, “PubChem BioAssay data set” (2004).

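These data come from cells grown in 96-well plates and exposed to compound for 48 hours at five concentrations. At the GI50, growth is halved.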 Calls of active or inactive are those of the source. Rule as the data show it: active = GI50 up to about 1.1 µM and inactive = higher.

For the test, the system named is NCI-H322M. As to the kind of experiment: DTP human tumour cell line panel, 48 h.
For `CC(C)(C)c1ccc(CN2CCN(C(c3ccccc3)c3ccc(Cl)cc3)CC2)cc1` (configuration not stated), the GI50 was inactive: > 100 µM.

Consider `Nc1nc(N)c2nc(CNc3ccc(C(=O)O)cc3)[nH]c2n1`, for which the GI50 was inactive: > 100 µM. The figure for `CCOC(=O)C(=O)NC12CC3CC(CC(C3)C1)C2` is inactive: > 100 µM; for `CCCNc1ncnc2[nH]ncc12` it is inactive: > 100 µM; for `Cc1ccc(Nc2nnc(-c3ccc4c(c3)OCO4)o2)c(C)c1` it is inactive: > 100 µM. For the molecule `N=c1oc2cc(O)ccc2cc1C(=O)Nc1ccccn1`, the GI50 is inactive: > 100 µM. Consider `O=C(O)C/C(=C\c1ccco1)C(=O)O`, for which the GI50 was inactive: > 100 µM.

On to `O=C1CCC2(c3ccc(F)cc3)Nc3cc(Cl)ccc3N12` (configuration not stated), for which the GI50 was inactive: > 100 µM. As for `Cc1ccc(S(=O)(=O)Oc2cc(S(=O)(=O)O)cc3cc(S(=O)(=O)O)cc(N)c23)cc1`, the GI50 is inactive: > 100 µM. For `NCCNCC1CCNCC1`, the GI50 was inactive: > 100 µM. For the molecule `COc1ccc2c(c1)c(Cc1c(C)n(C)c3ccc(OC)cc13)c(C)n2C`, the GI50 is inactive: > 100 µM. The figure for `Oc1c(/N=N\c2ccccc2)c2cccc3ccc4cccc1c4c32` is inactive: > 100 µM; for `COc1ccc(-c2c3c(nc4nc(SC)nc(SC)c24)CCCC3)cc1OC` it is inactive: > 100 µM. The same measure for `CC(=O)NC(ON1C(=O)COc2ccccc21)C(Cl)(Cl)Cl` (configuration not stated): inactive: > 100 µM; for `Cn1c2ccccc2c2c(-c3ccccc3)cc3c(c21)C(=O)C=CC3=O`: inactive: > 10 µM.

Regarding `CC(C)C1(C)N=C(C(F)(F)F)c2cc(C(=O)C(F)(F)F)c3ccccc3c2N1` (configuration not stated), the GI50 was inactive: 6.15 µM. Turning to `CCS(=O)(=O)Nc1ccc(Nc2c3ccccc3nc3ccccc23)c(OC)c1`, the GI50 was inactive: 4.43 µM. Take `CCCCCC(C/C=N/N(C)C)C(O)(C(F)(F)F)C(F)(F)F` (configuration not stated): the GI50 is inactive: 57.3 µM. With `CC(C)(C)c1cc(C(C)(C)C)c2sc(=S)oc2c1O`, the GI50 is inactive: 11.9 µM.

Turning to `CCCNCC(O)CNc1ccc(NCC(O)CNCCC)c2c1C(=O)c1ccccc1C2=O` (configuration not stated), the GI50 was inactive: 2.64 µM. The same measure for `CC(/C=N/N=C1NCCCN1)=N\N=C1NCCCN1`: inactive: > 100 µM; for `c1ccc(SC(CCCCOC2CCCCO2)Sc2ccccc2)cc1` (configuration not stated): inactive: > 100 µM; for `O=C1C=C(NCCc2ccccc2)c2ccccc2C1=O`: inactive: 1.58 µM. Consider `Oc1c(C2=NNC(c3cccs3)C2)ccc2ccccc12` (configuration not stated), for which the GI50 was inactive: 26.4 µM. The figure for `N#Cc1c(-c2ccccc2)c(C#N)c(=S)n(C2OCC(O)C(O)C2O)c1N` (configuration not stated) is inactive: > 100 µM; for `CC(=O)c1c(O)cc(O)c(-c2c(C)cc(O)c3c2C(=O)c2cccc(O)c2C3=O)c1O` it is inactive: 14.3 µM. Take `COc1cc2c(c(OC)c1OC)-c1ccc(SC)c(=O)cc1C(CO)C2` (configuration not stated): the GI50 was active: 0.279 µM. On to `Nc1ccccc1/C=C\c1ccccc1`, for which the GI50 was inactive: > 100 µM. With `CN1C2CCC1C(C(O)c1ccccc1[N+](=O)[O-])C(=O)C2` (configuration not stated), the GI50 was inactive: 44.6 µM. Turning to `CC(=O)n1nc(-c2nc3ccccc3nc2Cl)cc1Cl`, the GI50 is inactive: 28.5 µM.

For `CN(C)C(=N)c1ccccc1`, the GI50 is inactive: > 100 µM.

As for `NCCCNCc1c2ccccc2c(CNCCCN)c2ccccc12`, the GI50 was inactive: 25.1 µM.

`CC(=O)C1(O)CCC2(O)C3(O)CC=C4CC(O)CCC4(C)C3CC(OC(=O)c3ccc(O)cc3)C12C.COC1CC(OC2C(C)OC(OC3C(C)OC(OC4CCC5(C)C(=CCC6(O)C5CC(OC(=O)c5ccc(O)cc5)C5(C)C(O)(C(C)=O)CCC65O)C4)CC3OC)CC2OC)OC(C)C1O` (configuration not stated): the GI50 was inactive: 35.8 µM.

As to `O=C1NC2c3c(I)sc(I)c3C(O)C2O1` (configuration not stated), the GI50 was inactive: > 100 µM.

On to `COC(=O)C1CC2C=CC=CC(=O)C2(C)C1` (configuration not stated), for which the GI50 is inactive: 46.8 µM. For the molecule `N#Cc1nc(Nc2cccc3ccccc23)sc1N`, the GI50 is inactive: 56.1 µM. In the case of `CCn1c2ccccc2c2ccc(C3C4C(=O)N(c5cccc6ccccc56)C(=O)C4ON3C(C(N)=O)c3ccccc3)cc21` (configuration not stated), the GI50 is inactive: 23.1 µM. For `O=c1oc2ccc3ccccc3c2cc1-c1nc2ccc([N+](=O)[O-])cc2o1`, the GI50 is inactive: 47.4 µM. Regarding `CC(=O)OCC1OC(OCCCOP(=O)(OCCC#N)OCC2OC(n3cnc4c(N)ncnc43)C(OC(=O)c3ccccc3)C2OC(=O)c2ccccc2)C(OC(C)=O)C(OC(C)=O)C1OC(C)=O` (configuration not stated), the GI50 is inactive: > 100 µM. The figure for `CCN1C/C(=C\c2ccc(Cl)cc2)c2[nH]c(=O)c(C#N)c(-c3ccc(Cl)cc3)c2C1` is inactive: > 100 µM; for `COC(=O)C1=C(CCC[C@H](C)O[Si](C)(C)C(C)(C)C)NC(=O)N2[C@@H](CCO)CC[C@H]12` it is inactive: 17.3 µM.

Consider `COP(C)(=O)C(Cc1c[nH]c2ccccc12)NC(=O)OCc1ccccc1` (configuration not stated), for which the GI50 is inactive: > 100 µM. On to `COc1cc2c(c3oc4c(O)cccc4c(=O)c13)CC(C(C)(O)CCl)O2` (configuration not stated), for which the GI50 is inactive: 4.56 µM. `COC(=O)c1ccc(COC(=O)N2C=CCC2C(=O)O)cc1` (configuration not stated): the GI50 is inactive: > 100 µM. In the case of `NCCC(=O)N[C@@H](Cc1cc(O)c(O)c(SCC(NC(=O)CC[C@H](N)C(=O)O)C(=O)NCC(=O)O)c1)C(=O)O` (some centres not stated), the GI50 is inactive: > 50 µM. Turning to `COc1ccc(/N=c2\ssc(C(=S)Nc3ccc(OC)cc3)c2S)cc1`, the GI50 is inactive: > 100 µM. Turning to `CC1(C)C(O)c2ccccc2OC1N1CCN(C2Oc3ccccc3C(O)C2(C)C)CC1` (configuration not stated), the GI50 was inactive: > 100 µM. In the case of `COc1ccc(Cc2coc3ccccc3c2=O)cc1OC`, the GI50 was inactive: > 100 µM.

Take `CCOC(=O)CC(=O)Sc1ccccc1`: the GI50 is inactive: 25.5 µM. In the case of `Nn1c(SCC(=O)O)nc2ccccc2c1=O`, the GI50 was inactive: > 100 µM. As to `C=C1C(=O)OC2(C)C3CCC(C3)C12` (configuration not stated), the GI50 is inactive: 75.3 µM.

Regarding `c1ccc(/C(=N/Nc2ccccn2)c2cccnn2)cc1`, the GI50 is inactive: 3.72 µM. For `O=S(=O)(O)c1cc(/N=N/c2c(O)ccc3ccccc23)ccc1/C=C/c1ccc(/N=N/c2c(O)ccc3ccccc23)cc1S(=O)(=O)O`, the GI50 is inactive: > 100 µM. Regarding `COC(=O)C(Cc1ccc2c(c1)CCC2)Cc1ccc2c(c1)CCC2`, the GI50 is inactive: > 100 µM.

For the molecule `C[C@]12CC[C@H](O)CC1=CC[C@@H]1C2CC[C@]2(C)NC(=O)C(C#N)CC12` (some centres not stated), the GI50 is inactive: 47.2 µM.

Consider `CN(/N=C/c1ccccc1O)c1ccc2ccccc2n1`, for which the GI50 is inactive: 20.7 µM. The figure for `CCCCCOc1ccc(/C=N\c2ccc(-c3ccc(/N=C\c4ccc(OCCCCC)cc4)c(OC)c3)cc2OC)cc1` is inactive: > 100 µM. Turning to `COc1ccc(C[P+]2(c3ccccc3)CCCCC2)cc1.O=[N+]([O-])c1ccc(C[P+]2(c3ccccc3)CCCCC2)cc1.[O-][Cl+3]([O-])([O-])[O-].[O-][Cl+3]([O-])([O-])[O-]`, the GI50 is inactive: > 100 µM. For the molecule `O=C(O)c1c2c(c(C(=O)O)c3ccccc13)-c1ccccc1-2`, the GI50 was inactive: 35.1 µM. For the molecule `CN(C)c1ccc(-c2nc(-c3cc4c(ccc5ccccc54)oc3=O)cs2)cc1`, the GI50 was inactive: > 100 µM. With `CC(C)CCn1c(=O)c2c(=O)[nH][nH]c2c2ccccc21`, the GI50 is inactive: > 100 µM. The figure for `COc1ccc(-c2nc(-c3ccc(OC)cc3)n(-c3ccccc3)n2)cc1` is inactive: 85.9 µM; for `COc1ccc(S(=O)(=O)N/N=C/c2cc(I)cc([N+](=O)[O-])c2O)cc1OC` it is inactive: 52.1 µM; for `O=C(OC(=O)n1ccc2ccccc21)n1ccc2ccccc21` it is inactive: > 100 µM. `CO/C=C(/C(=O)OC)c1ccccc1COc1cccc(C(F)(F)F)c1`: the GI50 was inactive: 5.87 µM.

With `COc1c(C(=O)/C(=N/Nc2ccc(C(=O)O)cc2)C(C)=O)c(O)cc2occc12`, the GI50 was inactive: > 100 µM. For the molecule `Oc1ccccc1/C=N/Nc1nnc2c3ccccc3c3ccccc3c2n1`, the GI50 was inactive: > 100 µM. On to `Cc1c2c(n(CCc3ccc(Cl)cc3)c1C)NC(c1ccccc1)C(C#N)S2(=O)=O` (configuration not stated), for which the GI50 is inactive: > 93.5 µM. For `CCC1OC2(C)CC(C#N)(C#N)C1(C#N)C(=N)O2` (configuration not stated), the GI50 was inactive: > 100 µM. The figure for `O=C(CSc1nc2ccc(I)cc2c(=O)n1Cc1ccccc1)N/N=C/c1ccccc1` is inactive: 23.6 µM; for `CCC(C)C(C(=O)N/N=C1/SCC(=O)N1c1ccccc1)C(=O)N/N=C1/SCC(=O)N1c1ccccc1` (configuration not stated) it is inactive: 97.5 µM. Regarding `CO[C@@H]1C[C@H](OC(N)=O)[C@@H]2C=C[C@@H]3/C=C(C)/C=C/[C@@H](C)[C@H]([C@H](C)[C@H](O)[C@@H](C)NC(C)=O)OC(=O)/C=C/C=C(C)\C=C\[C@]3(C)[C@@H]2C1`, the GI50 was active: < 0.01 µM. The figure for `O=c1ccn(C2OC(CO)C(O)C2F)c(=O)n1Cc1ccccc1` (configuration not stated) is inactive: > 100 µM; for `N#Cc1ccc(Sc2ccccc2)cc1C#N` it is inactive: > 100 µM; for `COc1ccccc1-c1cc(=O)c2cc(C)c(C)c(C(=O)O)c2o1` it is inactive: > 100 µM. For the molecule `COC1=CC(=O)C(C2(OC(C)C)OC(=O)C(Cl)=C2Cl)=CC1=O` (configuration not stated), the GI50 was inactive: > 100 µM. Regarding `O=C1NC(c2cccc3ccccc23)Nc2ccc(O)cc21` (configuration not stated), the GI50 is inactive: 67.6 µM. `COc1ccc(C(C)NNC(=O)c2cc[n+]([BH2-]C#N)cc2)c(OC)c1` (configuration not stated): the GI50 is inactive: > 100 µM. The same measure for `COc1cc(C2c3cc4c(cc3[C@@H](NCCN3CCOCC3)C3COC(=O)[C@H]23)OCO4)cc(OC)c1O` (some centres not stated): inactive: 10.6 µM; for `C=C1C(=O)c2cc3c(cc2C(c2cc(OC)c(OC)c(OC)c2)[C@@H]1C(=O)O)OCO3` (some centres not stated): inactive: 32.4 µM. The figure for `N#Cc1cc(N(CCCl)CCCl)c([N+](=O)[O-])cc1[N+](=O)[O-]` is inactive: > 100 µM; for `COC1=CC(=O)c2c(c(-c3nc(C)cs3)cn2C)C1=O` it is inactive: 4.51 µM.

By GI50 is commonly meant the concentration giving 50% growth inhibition.
